Reference: PubChem BioAssay AID624296 (National Center for Advancing Translational Sciences (NCATS), 2012)
Out of some 350,000 compounds screened, about 9,900 (2.8%) were called active. Inconclusive results, whose numbers are uncertain, are shown with a selection of clear calls. The call rests on the fitted dose curve; in most records, active means well fitted activation curve with a large enough effect; inconclusive means small, poorly fitted or top-dose-only effect; inactive means no such curve, though single readings can be large or run the other way. No potency is given beside an inconclusive call; the fits are too rough.

test: A quantitative high throughput screen for small molecules that induce DNA re-replication in MCF 10a normal breast cells.; further: nearly all actives have a fitted effect of over 50% in size; on activity, positive = re-replication: % of control where 0% means no effect; conditions: MCF 10A DNA re-replication, Hoechst nuclear intensity, 48 h; activity, positive = re-replication: at 46.1 µM (top of the series)
Potency means the concentration at half of the fitted maximal effect; tags describe the fitted curve by direction and shape.

Structure (SMILES)	Potency	activity, positive = re-replication
CN(C)c1cccc2c(S(=O)(=O)N3CCCC3)cccc12	inconclusive [activator, partial curve, poor fit]	–
Cc1nnc(NCc2n[nH]c(=O)c3ccccc23)c2ccccc12	inconclusive [activator, single point]	–
CCN1CCN(c2cc(C(C)C)nc3c(-c4ccccc4)c(C)nn23)CC1	inconclusive [activator, single point]	–
COc1ccc(-c2ccnc(-c3ccc(O)cc3)n2)cc1	active: 2.06 µM	–
O=C(N/N=C/c1cc([N+](=O)[O-])ccc1O)C12CC3CC(CC(C3)C1)C2	active: 7.31 µM	–
CCOc1ccccc1C(=O)OCC(=O)NCC1CCCCC1	inconclusive [activator, full curve, poor fit]	–
Cc1ccc(-n2nc(C(=O)NCc3ccco3)c3c4ccccc4n(C)c3c2=O)cc1	inconclusive [activator, partial curve, poor fit]	–
CC(C)C(C)NC(=O)CN1C(=O)NC2(CCc3ccccc32)C1=O (centres undefined)	–	inactive: -2.63%
COc1ccc(CCNC(=O)C2CCCN(S(=O)(=O)N3CC(C)CC(C)C3)C2)cc1OC (centres undefined)	–	inactive: 7.9%
Cc1ccc(C2=Nc3ccccc3N=C(C(Cl)Cl)C2)cc1	inconclusive [activator, single point]	–
CN(CCCNC(=O)c1cccn2c(=O)c3ccccc3nc12)Cc1ccccc1	inconclusive [activator, single point]	–
c1ccc(C2(c3ccccc3)OCC(Cn3cncn3)O2)cc1 (centres undefined)	inconclusive [activator, partial curve, poor fit]	–
CCCC(c1nnnn1CS(=O)(=O)c1ccc(C)cc1)N1CCN(CC)CC1 (centres undefined)	inconclusive [activator, single point]	–
O=C1C2C3C=CC(C4CC34)C2C(=O)N1/N=C/c1cccs1 (centres undefined)	inconclusive [activator, full curve]	–
CCOC(=O)N1CCN(S(=O)(=O)c2ccc(C(=O)NNc3nc4ccc(Cl)cc4s3)cc2)CC1	inconclusive [activator, single point]	–
CC(CCc1ccccc1)NC(=O)CNc1cccc([N+](=O)[O-])c1 (centres undefined)	–	inactive: -5.22%
Cn1c(=O)c2c(-c3ccccc3)n(-n3cnnc3)cc2n(C)c1=O	–	inactive: 11%
CN1Cc2cccc3c2C(Cc2ccccc2S3)C1 (centres undefined)	inconclusive [activator, full curve]	–
CC(C)c1ccccc1NC(=O)Nc1ccc(F)cc1F	inconclusive [activator, single point]	–
